Results from PubChem BioAssay AID1345083 (National Center for Advancing Translational Sciences (NCATS), 2018).
Among all 94,000 compounds or so, about 6,200 (6.6%) were called active. Inconclusive means that the source gave no clear call. Such entries were picked first, then a sample of the others. Calls come from the whole dose curve; as a rule, active = well fitted inhibition curve with a large enough effect; inconclusive = small, poorly fitted or top-dose-only effect; inactive = flat fitted curve, though single readings scatter. Where the call is inconclusive, the potency comes from a doubtful curve fit.

Assay: Cytotoxic Profiling in HEK 293 Cell Line of Diverse Libraries Using Quantitative High-Throughput Screening; note: nearly all actives have a fitted effect of over 60% in size
Settings: HEK 293 viability, ATP luminescence (CellTiter-Glo), 48-72 h; activity change, negative = cytotoxicity: at 115 µM (top of the series) unless noted; series mostly up to 115 µM
In short: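 250 HEK 293 cells/well; compound by pintool; incubated 48 or 72 hr at 37 degree Celsius; CellTiter-Glo added, 10 min RT, luminescence imaged.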
% is set by controls: 0 for no effect and ±100 for the full control effect; potency is the fitted concentration of half-maximal effect; tags give direction and shape of the fitted curve.

Q: For `Cn1cccc1C(=O)N1C[C@@H](COCC2CC2)[C@H](c2ccccn2)C1`, which Potency is on record?
A: inconclusive: 50.1 µM [inhibitor, partial curve, poor fit]

Q: Which “activity change, negative = cytotoxicity” value does the source give for `CCOC(=O)[C@@H]1[C@@H](O)C(=O)N(Cc2ccccc2)C12CCN(C(=O)CCc1ccccc1)CC2` here?
A: inactive: -18.8%

Q: With `CSc1ncc(CN2CCCN(S(=O)(=O)N3CCCC3)CC2)cn1` as the compound, how does the Potency read?
A: inconclusive: 89.1 µM [inhibitor, partial curve, poor fit]

Q: With `O=C(NCCc1ccc(Cl)cc1)c1nc2sccn2c1-c1cccnc1` as the compound, how does the Potency read?
A: inconclusive: 79.4 µM [inhibitor, single point]

Q: Which Potency does the source give for `Cc1ccc(C(=O)N2CCCN(c3cc(-c4ccc(F)cc4)[nH]n3)CC2)cc1` here?
A: inconclusive: 35.5 µM [inhibitor, partial curve]

Q: With `CCOc1ccc(C(=O)N2CCN(c3cc(-c4cccs4)[nH]n3)CC2)cc1` as the compound, how does the Potency read?
A: inconclusive: 56.2 µM [inhibitor, partial curve, poor fit]

Q: For `O=C(NCc1cccc(Cl)c1)C1(c2ccc(Cl)cc2)CCOCC1`, which Potency is on record?
A: inconclusive: 35.5 µM [inhibitor, full curve]

Q: With `O=C(c1ccc2nc(-c3ccncc3)oc2c1)N1CCCCC1` as the compound, how does the Potency read?
A: inconclusive: 100 µM [inhibitor, partial curve, poor fit]

Q: With `Cn1ncc2c(C(=O)NCc3ccc(F)cc3F)cc(-c3ccccc3F)nc21` as the compound, how does the Potency read?
A: inconclusive: 35.5 µM [inhibitor, full curve]

Q: For `CC(c1cccs1)N(C)Cc1cccnc1` (stereo not drawn), which “activity change, negative = cytotoxicity” value is on record?
A: inactive: -5.97% [at 230 µM]

Q: With `Cc1ccc(C(=O)N2CCCC(C(=O)NCc3ccccc3)CCNC(=O)CC2)s1` (stereo not drawn) as the compound, how does the “activity change, negative = cytotoxicity” value read?
A: inactive: -11.4%

Q: Which Potency does the source give for `CC1=C[C@@H](CO)[C@H](C(C)C)C[C@H]1CC(=O)N1CCN(c2ccccn2)CC1` here?
A: active: 100 µM

Q: Which Potency does the source give for `N#Cc1ccccc1C(=O)N1CCOC(c2ccc(Cl)c(Cl)c2)C1` (stereo not drawn) here?
A: inconclusive: 50.1 µM [inhibitor, partial curve, poor fit]

Q: Which “activity change, negative = cytotoxicity” value does the source give for `CC(C)[C@@H](N)C(=O)N1CCC(Oc2ccccc2F)(C(=O)O)CC1` here?
A: inactive: -7.41%

Q: For `O=C(c1cn(CCCc2ccccc2)nn1)N1CCC(OCc2cccnc2)CC1`, which Potency is on record?
A: inconclusive: 44.7 µM [inhibitor, partial curve, poor fit]

Q: For `COc1ccc(-c2nc(C3CC3)nc3c2CCN(C(=O)c2ccc(C)cc2)CC3)cc1`, which Potency is on record?
A: inconclusive: 79.4 µM [inhibitor, partial curve, poor fit]

Q: For `c1cc(CN2CCCCCC2)cc(-c2nc(C3CCOC3)no2)c1` (stereo not drawn), which Potency is on record?
A: inconclusive: 89.1 µM [inhibitor, single point]

Q: Which Potency does the source give for `Cc1ccc2c(n1)N(C)[C@H](CO)CCN(Cc1ccccc1Cl)C2` here?
A: inconclusive: 39.8 µM [inhibitor, partial curve, poor fit]
